PubChem BioAssay (NCATS)
Where “and” joins values, the source holds several entries; their conditions need not be identical. Equal values may be shown once. Inconclusive results, whose numbers are uncertain, are shown with a selection of clear calls. Potencies of inconclusive entries are doubtful fits and often do not repeat. Calls of active or inactive are those of the source. Calls come from the whole dose curve; as a rule, active = well fitted curve in the direction sought with a large enough effect; inconclusive = small, poorly fitted or top-dose-only effect, or another doubt; inactive = no such curve, though single readings can be large; an effect the other way counts as inactive or inconclusive.

Tests used:
[1] = Viability qHTS for spleen associated tyrosine kinase inhibitor (SYKi) naive MV4-11 cells (AID 1963823); settings: MV4-11 AML viability, CellTiter-Glo luminescence, 72 h; series mostly up to 45 µM; note: nearly all actives have a fitted effect of over 40% in size
In short: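 CellTiter-Glo luminescence, 10 min room-temperature incubation, gave viability. Cells: naive MV4-11 (500/well), treated 72 hr at 37 C, 5% CO2.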

[2] = Quantitative highthroughput screen to assess conditional lethalithy of P12 Ichikawa cells grown in Human Plasma-Like Medium with dialyzed fetal bovine serum (HPLM+ds) (AID 1963879); settings: ATP luminescence, 48 h; Potency: viability; series mostly up to 45.8 µM; note: nearly all actives have a fitted effect of over 35% in size
In short: (§1)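 Each medium arm—HPLM with 10% dialyzed FBS, or RPMI1640 with 5 mM glucose and 10% untreated or dialyzed FBS—was screened against an 11-point, 3-fold compound titration for 48 h at 37 °C, with CellTiter-Glo luminescence as endpoint.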

[3] = Quantitative highthroughput screen to assess conditional lethalithy of P12 Ichikawa cells grown in RPMI1640 with dialyzed fetal bovine serum (RPMI+ds) (AID 1963880); settings: ATP luminescence, 48 h; Potency: P12-Ichikawa viability; series mostly up to 45.8 µM; note: nearly all actives have a fitted effect of over 35% in size
In short: as §1

[4] = Cellular viability qHTS for adrenocortical cancer (ACC) cell line SW-13 (AID 1963989); settings: SW-13 ACC cells viability, CellTiter-Glo, 48 h; activity (max response): stronger effect = lower value; note: nearly all actives have a fitted effect of over 65% in size
In short: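 Compound titrations (up to 46 uM final, in DMSO) were applied to SW-13 cells for 48 h at 37C/5% CO2. Reading used CellTiter-Glo after 20 min at room temperature; fitted curves yielded IC50 and efficacy.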

[5] = Quantitative highthroughput screen to assess conditional lethalithy of P12 Ichikawa cells grown in RPMI1640 with untreated serum (RPMI+s) (AID 1963881); settings: ATP luminescence, 48 h; Potency: viability; series mostly up to 45.8 µM; note: nearly all actives have a fitted effect of over 35% in size
In short: as §1

[6] = Quantitative highthroughput screen to assess conditional lethalithy of SEM cells grown in Human Plasma-Like Medium with dialyzed fetal bovine serum (HPLM+ds) (AID 1963882); settings: SEM B-ALL cells in HPLM+ds, CellTiter-Glo viability, 48 h; series mostly up to 45.8 µM; note: nearly all actives have a fitted effect of over 35% in size
In short: as §1

[7] = Quantitative highthroughput screen to assess conditional lethalithy of SEM cells grown in RPMI1640 with unreated serum (RPMI+s) (AID 1963883); settings: SEM B-ALL cells, CellTiter-Glo viability, 48 h; viability: at 45.8 µM (top of the series); note: nearly all actives have a fitted effect of over 35% in size
In short: as §1

[8] = Quantitative highthroughput screen to assess conditional lethalithy of NOMO1 cells grown in Human Plasma-Like Medium with dialyzed fetal bovine serum (HPLM+ds) (AID 1963878); settings: NOMO1 AML cells in HPLM+ds, CellTiter-Glo viability, 48 h; viability: at 45.8 µM (top of the series); note: nearly all actives have a fitted effect of over 35% in size
In short: as §1

[9] = Quantitative highthroughput screen to assess conditional lethalithy of SEM cells grown in RPMI1640 with dialyzed fetal bovine serum (RPMI+ds) (AID 1963884); settings: SEM B-ALL cells, RPMI+dialyzed FBS, CellTiter-Glo viability, 48 h; viability: at 45.8 µM (top of the series); note: nearly all actives have a fitted effect of over 35% in size
In short: as §1

[10] = Cellular viability qHTS for adrenocortical cancer (ACC) cell line NCI-H295R (AID 1963990); settings: CellTiter-Glo ATP luminescence, 48 h; series mostly up to 46.1 µM; note: nearly all actives have a fitted effect of over 60% in size
In short: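 Readout: CellTiter-Glo luminescence, 20 min RT. Exposure: 48 h, 37C/5% CO2. Cells: NCI-H295R, ITS-DMEM serum-free. Range: up to 46 uM. Analysis: 4PL fit, IC50 plus efficacy.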
Potency is the fitted concentration of half-maximal effect; tags give direction and shape of the fitted curve.

In the case of `Cc1cc(CN2CCN(c3c(Br)cnc4nc(-c5ccc(N6CCN(C)CC6)cc5)[nH]c34)CC2)no1`, the Potency [1] is reported as inconclusive: 0.0742 µM [cytotoxic, full curve], the Potency [2] is reported as active: 1.05 µM and the Potency [3] is reported as inconclusive: 1.05 µM [cytotoxic, full curve]. The Potency [4] was active: 31.6 µM.
For `CCc1c(O)cc(O)c(C(=O)c2ccc(OCCN3CCOCC3)c(OC)c2)c1CC(=O)N(CCOC)CCOC`, the Potency [1] was active: 0.132 µM, the Potency [2] was inconclusive: 3.72 µM [cytotoxic, full curve] and the Potency [3] was inconclusive: 2.96 µM [cytotoxic, full curve]. For the same compound, the Potency [5] was inconclusive: 2.35 µM [cytotoxic, full curve] and the Potency [6] was inconclusive: 3.72 µM [cytotoxic, full curve].
For `Nc1ccn([C@@H]2O[C@H](CO)[C@@H](O)C2O)c(=O)n1` (some centres undefined), the Potency [1] was inconclusive: 1.66 µM [cytotoxic, full curve], the Potency [2] was “inactive” and the Potency [6] was inconclusive: 33.2 µM [cytotoxic, single point]. For the same compound, the Potency [7] was inconclusive: 0.0053 µM [rising, full curve, poor fit] and the Potency [4] was inconclusive: 1.12 µM [cytotoxic, partial curve].
With `CC(C)(C)Cn1c(N)nc2ccc(-c3[nH]c(C(C)(C)C)nc3-c3ccc(F)cc3)nc21` the Potency [1] was inconclusive: 3.66 µM [cytotoxic, full curve] and active: 16.6 µM, the Potency [8] was inconclusive: 18.7 µM [cytotoxic, partial curve, poor fit] and the Potency [6] was “inactive”. For the same compound, the Potency [7] was inconclusive: 0.132 µM [cytotoxic, full curve, poor fit], the Potency [9] was inconclusive: 11.8 µM [cytotoxic, single point] and the Potency [4] was active: 25.1 µM. For the same compound, the Potency [10] was inconclusive: 31.6 µM [cytotoxic, single point].
For `CCN(CC)CCCC(C)Nc1nc(C)cc(Nc2ccc3nc(C)cc(N)c3c2)n1` (centres undefined), the Potency [1] was inconclusive: 16.6 µM [cytotoxic, partial curve], the Potency [8] was “inactive” and the Potency [3] was “inactive”. For the same compound, the Potency [4] was inconclusive: 31.6 µM [cytotoxic, partial curve, poor fit].
With `CN(C)c1nc(Cc2ccc(NC(=O)c3ccc(C(F)(F)F)cc3)cc2)nc(N(C)C)c1CC(=O)O` the Potency [1] was “inactive”, the Potency [2] was “inactive” and the Potency [3] was “inactive”. The Potency [6] was “inactive”.
With `CC(=O)NC(C)c1ccc(Oc2ccc(OC(C)C)cc2)cc1` (centres undefined) the Potency [1] was active: 10.8 µM, the Potency [8] was “inactive” and the Potency [9] was “inactive”. The Potency [4] was inconclusive: 7.08 µM [cytotoxic, full curve] and the Potency [10] was inconclusive: 10 µM [cytotoxic, partial curve, poor fit].
With `CC(C)C[C@@H](N)[C@H](O)C(=O)N[C@H](C(=O)N[C@H](C(=O)N[C@@H](CC(=O)O)C(=O)O)C(C)C)C(C)C` the Potency [1] was “inactive”, the Potency [8] was “inactive” and the Potency [6] was inconclusive: 37.2 µM [cytotoxic, partial curve, poor fit]. For the same compound, the Potency [9] was inconclusive: 0.0037 µM [rising, full curve, poor fit].
In the case of `CNCCN(C)Cc1cn[nH]c1-c1ccc(OC2CC(OCCC3CCOCC3)C2)cc1` (centres undefined), the Potency [1] is reported as inconclusive: 16.6 µM [cytotoxic, partial curve], the Potency [2] is reported as inconclusive: 3.31 µM [cytotoxic, full curve, poor fit] and the Potency [6] is reported as inconclusive: 11.7 µM [cytotoxic, partial curve]. The Potency [7] was inconclusive: 3.71 µM [cytotoxic, full curve], the Potency [9] was inconclusive: 13.2 µM [cytotoxic, partial curve] and the Potency [4] was inconclusive: 25.1 µM [cytotoxic, partial curve, poor fit].
For `O=C(O)Cc1cccc(OCCCN(Cc2cccc(C(F)(F)F)c2Cl)CC(c2ccccc2)c2ccccc2)c1`, the Potency [1] was active: 20.9 µM, the Potency [8] was “inactive” and the Potency [6] was “inactive”. The Potency [9] was “inactive” and the Potency [4] was inconclusive: 17.8 µM [cytotoxic, partial curve].
For `O=C(O)Cn1nnc(-c2cc(N3CCC(Oc4cc(F)ccc4Br)CC3)no2)n1`, the Potency [1] was “inactive”, the Potency [8] was inconclusive: 1.18 µM [cytotoxic, full curve] and the Potency [9] was “inactive”. The Potency [4] was inconclusive: 0.708 µM [cytotoxic, full curve].
In the case of `CCCCC(=O)O[C@]1(C(=O)CO)[C@@H](C)C[C@H]2[C@@H]3CCC4=CC(=O)C=C[C@]4(C)[C@@]3(F)[C@@H](O)C[C@@]21C`, the Potency [1] is reported as inconclusive: 0.9 nM and inconclusive: 13.2 µM [cytotoxic, partial curve, poor fit], the Potency [2] is reported as inconclusive: 0.0662 µM [cytotoxic, full curve] and the Potency [3] is reported as inconclusive: 0.0209 µM [cytotoxic, full curve]. The Potency [5] was inconclusive: 0.0372 µM [cytotoxic, full curve], the Potency [6] was inconclusive: 0.059 µM [cytotoxic, full curve] and the Potency [7] was inconclusive: 0.0833 µM [cytotoxic, full curve].
